Data on 80 molecules can be found in the supplement of paper PMC8183993.

Counter-ions that a name gives are not always drawn. ± gives the standard deviation of the averaged measurements. The full ranking holds about 3,200 compounds; the median of “nuclei count (viability) relative to DMSO” is about 99, and the lowest 2% start at about 16. Some of the results follow.

In the assay the test system is U2OS. The experiment in a line: nuclei count (viability) relative to DMSO (% of DMSO); higher = more viable cells. The following applies: 10 µM; 24 h. Here is the method:
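Primary image-based screen in U2OS cells: compounds at 10 uM for 24 h, then a 1 h o-propargyl-puromycin (OPP) pulse, click labelling, and high-throughput microscopy. Mean cytoplasmic OPP intensity and nuclei count were normalised to DMSO wells within each plate (DMSO = 100) and averaged over triplicate plates.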
As for `CC(CN(C)C)CN1c2ccccc2Sc2ccccc21` (stereo not given) [Trimeprazine tartrate], the nuclei count turned out to be 105.

In the case of `Oc1cccc(-c2nc(N3CCOCC3)c3oc4ncccc4c3n2)c1`, the nuclei count was 78.4 ± 1.2.

Molecule `C[C@@H]1COC(Nc2ccc3ncnc(Nc4ccc(OCc5nccs5)c(Cl)c4)c3c2)=N1` had a nuclei count of 97.4 ± 1.9. Molecule `O=C(/C=C/c1ccc(O)c(O)c1)O[C@@H]1C[C@](O)(C(=O)O)C[C@@H](O)[C@H]1O` [Chlorogenic acid] came in with a nuclei count of 107. Then `C=CCOC(Cn1ccnc1)c1ccc(Cl)cc1Cl` (stereo not given) [Enilconazole], with 108; and `C[C@]1(Cn2ccnn2)[C@H](C(=O)O)N2C(=O)C[C@H]2S1(=O)=O` [Tazobactam], with 94.4 ± 10. `CC(CN(C)C)C(C)(O)Cc1ccc(Cl)cc1` (stereo not given) [Clobutinol hydrochloride] showed a nuclei count of 97.1.

The molecule `CCN(CC)CCCCNc1ncc2cc(-c3cc(OC)cc(OC)c3)c(NC(=O)NC(C)(C)C)nc2n1` gave a nuclei count of 60.2 ± 12. Then `CC[C@@H](CO)NCCN[C@@H](CC)CO` [Ethambutol HCl], with 97.2. For `CC[C@@H](CO)NCCN[C@@H](CC)CO` [Ethambutol dihydrochloride], the nuclei count came to 99.3. Then `CC1=C(/C=C/C(=C/C=C/C(C)=C/C(=O)O)c2ccc(C)cc2)C(C)(C)CCC1`, with 96.4; and `O=C(NCCN1CCCCC1)c1ccc(I)cc1` [N-[2-(Piperidinylamino)ethyl]-4-iodobenzamide], with 103; and `CC(C)C[C@H](NC(=O)CNC(=O)c1cc(Cl)ccc1Cl)B1OC(=O)C(CC(=O)O)(CC(=O)O)O1`, with 11.6. As for `CC(=O)OCC(=O)[C@@]1(OC(C)=O)[C@@H](C)C[C@H]2[C@@H]3C[C@H](F)C4=CC(=O)C=C[C@]4(C)[C@@]3(F)[C@@H](O)C[C@@]21C` [Diflorasone Diacetate], the figure is 105. Then `CC1=C(/C=C/C(C)=C\C=C\C(C)=C\C(=O)O)C(C)(C)CCC1` [9-cis Retinoic acid], with 81.7; and `CCCOc1ccc(C(=O)OCCN(CC)CC)cc1N` [Proparacaine hydrochloride], with 99.6; and `CC(=O)N[C@@H](CSCC=C(C)CCC=C(C)CCC=C(C)C)C(=O)O` [Acetyl-S-farnesyl-L-cysteine], with 84.8. In turn, `COC(=O)Nc1ccc2[nH]cc(CCNC(C)=O)c2c1` displayed a nuclei count of 96.2. Then `CCCCCCCCCCCCCCCC(=O)C1=C(O)[C@@H](CO)OC1=O`, with 95.2; and `Cc1cc(C)c(S(=O)(=O)Nc2cccc(C(F)(F)F)c2)c(C)c1`, with 104. Then `NC(=O)c1cccc(N)c1` [3-Aminobenzamide], with 102; and `Cc1ccc(-n2nc(C(C)(C)C)cc2NC(=O)Nc2ccc(OCCN3CCOCC3)c3ccccc23)cc1` [BIRB 796 (Doramapimod)], with 94.7. Then `C=CCSCC1Nc2cc(Cl)c(S(N)(=O)=O)cc2S(=O)(=O)N1` (stereo not given) [Althiazide], with 91.1; and `CNC(=O)c1ccc(C)c(-n2c(C)cc(OCc3ccc(F)cc3F)c(Br)c2=O)c1`, with 97.2; and `CN(C)CC/C=C1/c2ccccc2COc2ccc(CC(=O)O)cc21` [Olopatadine hydrochloride], with 104. Regarding `c1nc(CC2CCNCC2)c[nH]1` [Immepip dihydrobromide], the nuclei count came out at 103. As for `O=C(O)C1=CCCN(CCON=C(c2ccccc2)c2ccccc2)C1`, the figure is 98.8.

As to `c1ccc(CN(CC2=NCCN2)c2ccccc2)cc1` [Antazoline hydrochloride], the nuclei count is 89.7 ± 6.5. Regarding `CC[C@H](C)C[C@H](C)CCCCCCCCC(=O)N[C@H]1C[C@@H](O)[C@@H](NCCN)NC(=O)[C@@H]2[C@@H](O)CCN2C(=O)[C@H]([C@H](O)CCN)NC(=O)[C@H]([C@H](O)[C@@H](O)c2ccc(O)cc2)NC(=O)[C@@H]2C[C@@H](O)CN2C(=O)[C@H]([C@@H](C)O)NC1=O` [Caspofungin Acetate], the nuclei count worked out at 101.

With `Nc1ncnc2n[nH]c(Nc3ccc(F)cc3)c12`, the nuclei count stood at 73.5. As for `CC(=O)N(CC(O)CN(C(C)=O)c1c(I)c(C(=O)NCC(O)CO)c(I)c(C(=O)NCC(O)CO)c1I)c1c(I)c(C(=O)NCC(O)CO)c(I)c(C(=O)NCC(O)CO)c1I` (stereo not given) [Iodixanol], the figure is 111; as for `CC(C(=O)O)c1ccc(C(=O)c2ccccc2)s1` (stereo not given) [Tiaprofenic acid], 103; as for `CCCCC[C@H](O)/C=C/C=C\CCCCCCCC(=O)O` [13(S)-Hydroxy-9Z,11E-octadecadienoic acid], 94.5. `CN1C(C(=O)Nc2ccccn2)=C(O)c2sccc2S1(=O)=O` [Tenoxicam] showed a nuclei count of 105.

For `Cc1ncc([N+](=O)[O-])n1CC(O)CCl` (stereo not given) [Ornidazole], the nuclei count is 96.6.

Molecule `NC(=O)N1c2ccccc2CC(O)c2ccccc21` (stereo not given) [Licarbazepine] yielded a nuclei count of 104. Then `Cc1cccc(C)c1NC(=O)C1CCCCN1C` (stereo not given) [Mepivacaine hydrochloride], with 102; and `CCc1nc(-c2cccc(C)c2)c(-c2ccnc(NC(=O)c3ccccc3)c2)s1`, with 91.8 ± 6.9; and `CNC(=O)[C@H]1O[C@@H](n2cnc3c(NCc4cccc(I)c4)ncnc32)[C@H](O)[C@@H]1O`, with 105. As to `C=C[C@H]1CN2CC[C@H]1C[C@@H]2[C@@H](O)c1ccnc2ccc(OC)cc12` [Quinidine hydrochloride monohydrate], the nuclei count is 96.1. Then `C[C@]12CC[C@H]3C(=CCc4cc(O)ccc43)[C@@H]1CCC2=O` [Equilin], with 93.1; and `CCN(C(=O)CO)[C@H]1CN(/C(=N\C#N)Nc2cccc(OC(F)F)c2)N=C1c1ccc(Cl)c(Cl)c1`, with 111; and `CN(C)CCC=C1c2ccccc2CCc2ccccc21` [Amitryptiline hydrochloride], with 92.5. In turn, `Cc1ccnc2c1NC(=O)c1cccnc1N2C1CC1` [Nevirapine (Viramune)] came in with a nuclei count of 111. Consider `Cc1[nH]c(=O)c(C#N)cc1-c1ccncc1` [Milrinone], for which the nuclei count worked out at 104. Then `CC(C)[C@H](CO)Nc1nc(Nc2cccc(Cl)c2)c2ncn(C(C)C)c2n1` [Purvalanol A], with 48.7. As to `CS(=O)(=O)c1ccc(C2=C(c3ccccc3)C(=O)OC2)cc1` [Rofecoxib], the nuclei count was determined as 108. As for `Cn1c(=O)c2[nH]cnc2n(C)c1=O` [Aminophylline], the figure is 108; as for `O=C(CCCCCCC(=O)NO)NO` [Suberoyl bis-hydroxamic acid], 98.2. Then `COc1ccc([C@H]2CNC(=O)C2)cc1OC1CCCC1` [S- (+)-Rolipram], with 101. Then `COc1ccc([C@H]2CNC(=O)C2)cc1OC1CCCC1` [(S)-(+)-Rolipram], with 101; and `CCN(CC)CCOC(=O)C(c1ccccc1)C1CCCCC1` (stereo not given) [Drofenine hydrochloride], with 108; and `COc1cc2c(cc1OC)CN(CCc1ccc(NC(=O)c3cc(OC)c(OC)cc3NC(=O)c3cnc4ccccc4c3)cc1)CC2` [Tariquidar], with 96.8. Molecule `FC(F)(F)c1cc(COC2CCCNC2c2ccccc2)cc(C(F)(F)F)c1` [L-733,060 hydrochloride] had a nuclei count of 97.6. As for `CN(C(=O)c1ccc(F)cc1C(F)(F)F)C1CCN(c2nnc(-c3ccnn3C)c3ccccc23)CC1`, the figure is 101; as for `COc1cc(Cc2cnc(N)nc2N)cc(OC)c1OC` [Trimethoprim], 109. As for `CN1CCC(c2c(O)cc(O)c3c(=O)cc(-c4ccccc4Cl)oc23)C(O)C1` (stereo not given) [Flavopiridol (Alvocidib) HCl], the figure is 36.8; as for `CO[C@@]1(NC(=O)Cc2cccs2)C(=O)N2C(C(=O)O)=C(COC(N)=O)CS[C@@H]21` [Cefoxitin sodium salt], 93.2; as for `CC(=O)c1ccc2c(c1)N(CCCN1CCC(CCO)CC1)c1ccccc1S2` [Piperacetazine], 88.2. Then `COc1ccccc1-c1cc(Nc2cccc(CS(N)(=O)=O)c2)ncn1`, with 58.5; and `CC1(COc2ccc3c(c2)ncn3-c2ccc3cccc(N4CCC(N)CC4)c3n2)COC1`, with 36.9; and `CNCC[C@H](Oc1cccc2ccccc12)c1cccs1` [Duloxetine HCl (Cymbalta)], with 95.7. As to `C[C@@H](Oc1cc(-n2cnc3ccc(CN4CCN(C)CC4)cc32)sc1C(N)=O)c1ccccc1C(F)(F)F`, the nuclei count came to 32.2.

Molecule `O=C(CCCN1CCC(O)(c2ccc(Br)cc2)CC1)c1ccc(F)cc1` [Bromperidol] came in with a nuclei count of 95. As for `COc1cc2c(cc1OC)C(=O)C(CC1CCN(Cc3ccccc3)CC1)C2` (stereo not given) [Donepezil HCl (Aricept)], the figure is 113.

In turn, `CCCCC(CC)CN1CN(CC(CC)CCCC)CC(C)(N)C1` (stereo not given) [Hexetidine] displayed a nuclei count of 106. In turn, `C=CC(=O)c1ccc2ccccc2c1` came in with a nuclei count of 105.

The molecule `NS(=O)(=O)c1cccc2c1c([N+](=O)[O-])cc1nc(O)c(O)nc12` showed a nuclei count of 98.7. Turning to `NS(=O)(=O)c1cccc2c1c([N+](=O)[O-])cc1nc(O)c(O)nc12` [NBQX disodium salt], the nuclei count was determined as 109. Then `N#CC(=C(/N)Sc1ccccc1N)/C(C#N)=C(/N)Sc1ccccc1N`, with 102; and `CC(C)(C)C(=O)OCOC(=O)[C@@H]1N2C(=O)[C@@H](NC(=O)[C@H](N)c3ccccc3)[C@H]2SC1(C)C` [Pivampicillin], with 91.2. Then `CC1(C)Oc2ccc(C#N)cc2[C@H](N2CCCC2=O)[C@H]1O` [Cromakalim], with 89.8; and `CCCCOc1c(C(=O)c2c(F)cc(C)cc2F)c[nH]c2nncc1-2`, with 83.2 ± 20.

`CCC(=O)N1CCOc2c(cc(-c3ccc(OC)c(OC)c3)cc2OC[C@H]2CCCN(C)C2)C1` showed a nuclei count of 96.7. As for `O=C1NCN(c2ccccc2)C12CCN(CCCC(c1ccc(F)cc1)c1ccc(F)cc1)CC2` [Fluspirilen], the nuclei count stood at 89.1.

In turn, `O=C1NCN(c2ccccc2)C12CCN(CCCC(c1ccc(F)cc1)c1ccc(F)cc1)CC2` [Fluspirilene] registered a nuclei count of 91.5 ± 13. Then `Nc1ccccc1NC(=O)c1ccc(CNC(=O)OCc2cccnc2)cc1` [Entinostat (MS-275, SNDX-275)], with 59.6; and `COc1cccc(OC)c1OCCNCC1COc2ccccc2O1` (stereo not given) [WB 4101 hydrochloride], with 104; and `N=C(N)NC(=O)c1nc(Cl)c(N)nc1N` [Amiloride hydrochloride dihydrate], with 105. Then `N=C(N)NC(=O)c1nc(Cl)c(N)nc1N` [Amiloride hydrochloride], with 89.8.
